Where “and” joins values, the source holds several entries; their conditions need not be identical. Equal values may be shown once. The shares of active, inactive and inconclusive entries below differ from those in the screen. A potency beside an inconclusive call is a rough fit, not a confirmed value. Calls of active or inactive are those of the source. Calls follow the shape of the dose curve; as a rule, active = well fitted curve in the direction sought with a large enough effect; inconclusive = small, poorly fitted or top-dose-only effect, or another doubt; inactive = no such curve, though single readings can be large; an effect the other way counts as inactive or inconclusive.
Columns and labels:
[1] = qHTS of pediatric cancer cell lines to identify multiple opportunities for drug repurposing: Primary screen for RD cells (AID 1347104); also: nearly all actives have a fitted effect of over 55% in size
How it was run: (§1)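 Following a 5-hour attachment period, cells at 500-1,000/well received compounds and were cultured for 48 hours. CellTiter-Glo was added and luminescence read to estimate viable, metabolically active cells.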

[2] = qHTS of pediatric cancer cell lines to identify multiple opportunities for drug repurposing: Primary screen for MG 63 (6-TG R) cells (AID 1347105); conditions: MG 63 (6-TG R) viability, CellTiter-Glo, 48 h; activity change, negative = cytotoxic: at 46 µM (top of the series) unless noted; also: nearly all actives have a fitted effect of over 50% in size
How it was run: as §1

[3] = qHTS of pediatric cancer cell lines to identify multiple opportunities for drug repurposing: Primary screen for Rh30 cells (AID 1347107); also: nearly all actives have a fitted effect of over 75% in size
How it was run: (§2)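 Viability after 48 h compound treatment at 37C, 500-1,000 cells/well, read as ATP luminescence with CellTiter-Glo. Primary screens used 11-point (MIPE, 0.78 nM-46 µM) or 8-point (NPC, 0.59 nM-46 µM) final concentrations; follow-up screens used 11-point dilutions.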

[4] = qHTS of pediatric cancer cell lines to identify multiple opportunities for drug repurposing: Primary screen for Rh41 cells (AID 1347108); also: nearly all actives have a fitted effect of over 70% in size
How it was run: as §1

[5] = qHTS of pediatric cancer cell lines to identify multiple opportunities for drug repurposing: Confirmatory screen for NB1643 cells (AID 1347109); conditions: NB1643 neuroblastoma cell viability; activity change, negative = cytotoxic: at 45.9 µM (top of the series) unless noted; also: nearly all actives have a fitted effect of over 45% in size
How it was run: as §2

[6] = qHTS of pediatric cancer cell lines to identify multiple opportunities for drug repurposing: Confirmatory screen for BT-12 cells (AID 1347112); also: nearly all actives have a fitted effect of over 55% in size
How it was run: as §2

[7] = qHTS of pediatric cancer cell lines to identify multiple opportunities for drug repurposing: Confirmatory screen for SK-N-MC cells (AID 1347111);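 also: cells exposed to compound for 48 h before the readout; nearly all actives have a fitted effect of over 70% in size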
How it was run: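 SK-N-MC cells at 500-1,000 cells/well in growth media were pre-incubated 5 h, then exposed to compounds at 11-point dilutions for 48 h at 37 degrees C, 5% CO2. Viability was read as CellTiter-Glo luminescence.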

[8] = qHTS of pediatric cancer cell lines to identify multiple opportunities for drug repurposing: Primary screen for control Hh wild type fibroblast cells (AID 1347106); also: nearly all actives have a fitted effect of over 55% in size;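 as to activity change, negative = cytotoxic: a drop in luminescence marks cytotoxicity and a rise apparent proliferation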
How it was run: as §2

[9] = qHTS of pediatric cancer cell lines to identify multiple opportunities for drug repurposing: Confirmatory screen for A673 cells (AID 1347110); also: nearly all actives have a fitted effect of over 65% in size
How it was run: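 Cells plated at 500-1,000/well were treated five hours later with multi-point dilutions up to 46 µM final. After two days, CellTiter-Glo was added and luminescence read.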
Potency is read from the fitted curve at half-maximal effect; tags tell the direction and shape of the fitted curve.

SMILES: O=c1c(C2CC(c3ccc(-c4ccc(Br)cc4)cc3)Cc3ccccc32)c(O)sc2ccccc12 (stereo not drawn)
- Potency [1]: inconclusive: 42.2 µM [cytotoxic, partial curve, poor fit]
- Potency [2]: inconclusive: 8.41 µM [cytotoxic, partial curve]
- Potency [3]: inconclusive: 10.6 µM [cytotoxic, partial curve, poor fit]
- Potency [4]: inconclusive: 13.3 µM [cytotoxic, single point]

SMILES: CNC(=O)N1N=C(c2ccc(N)cc2)c2cc3c(cc2CC1C)OCO3 (stereo not drawn)
- Potency [1]: inconclusive: 5.9 µM [cytotoxic, partial curve]
- Potency [2]: inconclusive: 5.9 µM [cytotoxic, full curve]
- Potency [4]: inconclusive: 9.35 µM [cytotoxic, partial curve]

SMILES: C[C@]12CCC(=O)C=C1CC[C@@H]1[C@H]3CC[C@](C)(O)[C@@]3(C)CC[C@@H]12
- Potency [1]: inconclusive: 69.2 µM [cytotoxic, single point]
- Potency [2]: inconclusive: 21.9 µM [cytotoxic, partial curve, poor fit]
- Potency [3]: inconclusive: 21.9 µM [cytotoxic, partial curve, poor fit]
- Potency [4]: active: 38.9 µM

SMILES: C[C@@H]1C[C@@H]([C@H](O)CC2CC(=O)NC(=O)C2)C(=O)[C@@H](C)C1
- Potency [1]: active: 473 nM and active: 235 nM
- Potency [2]: inconclusive: 2.66 µM [cytotoxic, partial curve] and inconclusive: 4.69 µM [cytotoxic, partial curve]
- Potency [3]: inconclusive: 0.473 µM [cytotoxic, partial curve, poor fit]
- Potency [4]: inconclusive: 668 nM [cytotoxic, full curve] and active: 4.69 µM
- Potency [5]: inconclusive: 1.65 µM [cytotoxic, full curve] and inconclusive: 1.31 µM [cytotoxic, full curve]
- Potency [6]: inconclusive: 2.93 µM [cytotoxic, full curve, poor fit]

SMILES: O=P1(NCCCl)OCCCN1CCCl (stereo not drawn)
- Potency [1]: inconclusive: 23.5 µM [cytotoxic, partial curve, poor fit]
- Potency [2]: inconclusive: 14.8 µM [cytotoxic, partial curve, poor fit]
- Potency [7]: inactive
- Potency [6]: inactive

SMILES: CO/C=C(/C(=O)OC)c1ccccc1Oc1cc(Oc2ccccc2C#N)ncn1
- Potency [1]: inconclusive: 30.6 µM [cytotoxic, partial curve]
- Potency [2]: inconclusive: 61.1 µM [cytotoxic, partial curve, poor fit]
- Potency [3]: inconclusive: 30.6 µM [cytotoxic, partial curve, poor fit]
- Potency [4]: inconclusive: 21.7 µM [cytotoxic, partial curve]

SMILES: O=c1[nH]c2ccccc2n1C1CCN(CCCC(c2ccc(F)cc2)c2ccc(F)cc2)CC1
- Potency [1]: inconclusive: 29.9 µM [cytotoxic, single point]
- Potency [2]: inconclusive: 21.1 µM [cytotoxic, partial curve, poor fit]
- Potency [4]: inconclusive: 13.3 µM [cytotoxic, single point]

SMILES: COc1ccc2c(c1)CN(C)CC2c1ccc(Cl)c(Cl)c1 (stereo not drawn)
- Potency [1]: inconclusive: 23.5 µM [cytotoxic, partial curve, poor fit]
- Potency [8]: inactive
- Potency [3]: inactive
- Potency [5]: inconclusive: 26.1 µM [cytotoxic, single point]
- Potency [9]: inconclusive: 23.3 µM [cytotoxic, single point]
- Potency [6]: inactive

SMILES: COc1cc([C@@H]2c3cc4c(cc3[C@@H](O)C3COC(=O)C32)OCO4)cc(OC)c1O (stereo partly drawn)
- Potency [1]: inconclusive: 0.0166 µM [cytotoxic, full curve]
- Potency [8]: inconclusive: 0.132 µM [cytotoxic, full curve]
- Potency [4]: inconclusive: 0.0296 µM [cytotoxic, full curve]
- Potency [5]: inconclusive: 0.185 µM [cytotoxic, full curve, poor fit]
- Potency [7]: inconclusive: 0.737 µM [cytotoxic, full curve, poor fit]
- Potency [6]: inconclusive: 0.737 µM [cytotoxic, full curve]

SMILES: c1ccc(CCCN2CCN(CCOC(c3ccccc3)c3ccccc3)CC2)cc1
- Potency [1]: active: 29.6 µM
- Potency [3]: inconclusive: 20.9 µM [cytotoxic, partial curve]
- Potency [4]: inconclusive: 20.9 µM [cytotoxic, partial curve]

Reference: PubChem BioAssay (NCATS)
